SMILES strings stand for the structures. Out of some 310,000 compounds screened, about 2,200 (0.71%) showed an effect of 50% or more. The effect is printed as a negative number. The list shows a part of the results.

In this assay the target is human ether-à-go-go-related gene (hERG) potassium channel (human, UniProt Q12809). Nature of the assay: primary screen, population patch clamp on CHO cells stably expressing hERG.
Sequence of human ether-à-go-go-related gene (hERG) potassium channel (Q12809 whole entry, looked up): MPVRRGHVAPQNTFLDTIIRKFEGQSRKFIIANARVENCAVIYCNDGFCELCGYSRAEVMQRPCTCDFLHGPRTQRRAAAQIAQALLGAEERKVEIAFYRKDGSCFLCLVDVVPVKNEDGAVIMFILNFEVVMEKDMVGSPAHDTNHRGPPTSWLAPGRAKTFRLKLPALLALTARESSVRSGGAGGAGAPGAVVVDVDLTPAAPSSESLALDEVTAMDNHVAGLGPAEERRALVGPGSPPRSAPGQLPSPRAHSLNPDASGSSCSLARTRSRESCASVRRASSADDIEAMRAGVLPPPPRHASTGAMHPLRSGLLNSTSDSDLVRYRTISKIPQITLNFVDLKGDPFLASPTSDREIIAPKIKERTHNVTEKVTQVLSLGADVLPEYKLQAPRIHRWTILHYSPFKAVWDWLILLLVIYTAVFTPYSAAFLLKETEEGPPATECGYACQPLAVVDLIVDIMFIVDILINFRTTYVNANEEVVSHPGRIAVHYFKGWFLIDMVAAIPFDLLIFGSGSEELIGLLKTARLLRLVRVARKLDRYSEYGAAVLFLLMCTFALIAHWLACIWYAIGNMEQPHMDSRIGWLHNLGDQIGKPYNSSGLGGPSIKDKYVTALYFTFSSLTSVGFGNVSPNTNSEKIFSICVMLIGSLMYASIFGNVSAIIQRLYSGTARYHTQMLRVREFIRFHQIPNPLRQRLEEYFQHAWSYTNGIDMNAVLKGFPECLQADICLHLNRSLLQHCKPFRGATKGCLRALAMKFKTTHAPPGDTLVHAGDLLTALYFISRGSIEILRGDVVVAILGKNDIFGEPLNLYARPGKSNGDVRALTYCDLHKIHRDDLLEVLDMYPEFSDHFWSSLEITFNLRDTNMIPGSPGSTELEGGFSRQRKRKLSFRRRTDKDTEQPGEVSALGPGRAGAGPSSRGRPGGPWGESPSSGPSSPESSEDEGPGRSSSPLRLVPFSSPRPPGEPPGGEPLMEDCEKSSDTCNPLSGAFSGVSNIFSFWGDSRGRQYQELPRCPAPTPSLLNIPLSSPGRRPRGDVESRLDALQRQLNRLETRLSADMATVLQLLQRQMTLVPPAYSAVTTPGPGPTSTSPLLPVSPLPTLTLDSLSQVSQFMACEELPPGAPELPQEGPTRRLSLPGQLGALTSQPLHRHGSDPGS
As to `CCCc1nc2oc3c(NCC(C)O)ncnc3c2c2c1CCCC2` (centres unmarked), the “hERG current change (%, negative = inhibition) at 1uM” value is 9.22%. On to `Cc1ccc(N(CC(=O)NCc2ccco2)S(=O)(=O)c2ccccc2)cc1`, for which the “hERG current change (%, negative = inhibition) at 1uM” value stood at 5.16%. Turning to `COc1ccccc1C1OC2=C(Nc3ccc([N+](=O)[O-])cc3N2)C1=O` (centres unmarked), the “hERG current change (%, negative = inhibition) at 1uM” value is on record as 13%.

Regarding `O=C(Oc1ccc(C(=S)N2CCOCC2)cc1)c1cc([N+](=O)[O-])cc([N+](=O)[O-])c1`, the “hERG current change (%, negative = inhibition) at 1uM” value turned out to be 3.18%. Turning to `CC1=C(C(=O)Nc2ccc(C)cc2C)C(c2ccc(C)o2)NC(=S)N1` (centres unmarked), the “hERG current change (%, negative = inhibition) at 1uM” value is reported as 3.15%. `COC(=O)C1=C(c2ccc(C(C)=O)cc2)C[C@@H]2CC[C@H]1N2C(=O)NC1CCCCC1`: the “hERG current change (%, negative = inhibition) at 1uM” value is given as -8.6%. To `CN(C)C(=O)NC(Nc1cccc([N+](=O)[O-])c1)C(Cl)(Cl)Cl` (centres unmarked) belongs 4.79%; to `COCCNc1nc2c(c(=O)n(Cc3cccc(Cl)c3)c(=O)n2C)n1C`, 9.77%. The same measure for `COc1ccc(S(=O)(=O)Nc2ccc3c(c2)N(C(C)=O)CCC3)cc1OC`: 17.3%; for `COc1ccc(C2=NS(=O)(=O)N(C)C(C(=O)NCc3ccc4c(c3)OCO4)=C2)cc1`: -8.71%. `COc1ccc(S(=O)(=O)NCC(c2ccco2)N2CCc3ccccc3C2)cc1` (centres unmarked): the “hERG current change (%, negative = inhibition) at 1uM” value was determined as 10.1%. `Cc1c(C(=O)N2CCc3ccccc3C2)oc2ccccc12`: the “hERG current change (%, negative = inhibition) at 1uM” value is recorded as -1.86%.

For `CCOc1ccccc1NC(=O)CCCNC(=O)c1ccc(Cl)cc1`, the “hERG current change (%, negative = inhibition) at 1uM” value is on record as 12.7%. To `O=C(O)CCn1cc(/C=N/O)c(-c2cccc([N+](=O)[O-])c2)n1` belongs 13.6%; to `Cc1c(NC(=O)Nc2ccc3c(c2)OCO3)cccc1[N+](=O)[O-]`, 13.2%. The same measure for `CCOc1ccc2c(c1)s/c(=N\S(=O)(=O)c1ccc(OC)cc1)n2C(F)F`: 5.16%; for `CCCCCOc1ccc(CSCCNC(=S)Nc2ccccc2)cc1`: 8.49%. Consider `C#CCOCCOCCOCCNc1nc(N2CCN(C(=O)[C@H](CCC(=O)O)n3cc(C(N)CC(C)C)nn3)CC2)nc(N2CCN(C(=O)[C@H](CCC(=O)O)n3cc(C(N)CC(C)C)nn3)CC2)n1.Cl` (some centres unmarked), for which the “hERG current change (%, negative = inhibition) at 1uM” value is listed as 17.2%. To `COc1ccc(C)cc1NC(=O)C1CCN(S(=O)(=O)c2ccc3c(c2)NC(=O)CO3)CC1` belongs 11.3%. Take `O=C(O)c1cc(N/N=C/c2c[nH]c3ccccc23)ccc1Cl`: the “hERG current change (%, negative = inhibition) at 1uM” value was found to be 12.5%. To `COc1cc(C(=O)N=C2SC3CS(=O)(=O)CC3N2c2ccccc2)cc(OC)c1OC` (centres unmarked) belongs 12.6%; to `CCOc1ccccc1N1CCN(C(=S)NC(=O)C23CC4CC(CC(C4)C2)C3)CC1`, 1.79%. To `O=c1c2c(nc3n1CCS3)c1cc(F)ccc1n2Cc1cc(=O)n2cc(Cl)ccc2n1` belongs 10.3%; to `CC(NC(=O)CCCc1c[nH]c2ccccc12)c1ccc(F)cc1` (centres unmarked), 14.1%; to `Cc1ccc(-c2nn3cnnc3c3ccccc23)cc1C`, 5.36%.

`O=C(N/N=C/c1c(O)n(CCC2=CCCCC2)c(=S)[nH]c1=O)c1ccccc1`: the “hERG current change (%, negative = inhibition) at 1uM” value amounted to 12.6%. For the compound `O=S(=O)(CCN1CCN(c2ccccn2)CC1)c1ccc(Cl)cc1Cl`, the “hERG current change (%, negative = inhibition) at 1uM” value is -3.62%. To `Cc1c(Br)c([N+](=O)[O-])nn1CCCC(=O)Nc1sc2c(c1C(N)=O)CCC(C)C2` (centres unmarked) belongs -2.92%. To `Cc1ccc2nc(-c3ccc(SCC(=O)Nc4nc(C)cs4)nc3)[nH]c2c1` belongs 5.41%; to `O=C(O)c1ccc(N/N=C2/CCSc3ccc(F)cc32)cc1`, 2.15%; to `CCCc1cc(C(=O)Nc2cc(Br)ccc2O)no1`, 18.4%. The same measure for `CC(=O)CCc1oc2ccccc2c1-c1ccccc1`: 9.75%; for `COCCNc1ncnc2c1cnn2Cc1ccc(Cl)cc1`: -6.85%; for `COCCOC(=O)C1=C(C)NC(=O)NC1c1c(F)cccc1Cl` (centres unmarked): 6.78%. On to `Cc1cccc(OCc2nc(-c3ccccn3)n[nH]2)c1`, for which the “hERG current change (%, negative = inhibition) at 1uM” value is reported as 5.99%. To `COc1ccc2oc(=O)c(C(C)=O)cc2c1` belongs 13.8%; to `O=C(O)CC(NC(=O)C1c2ccccc2Oc2ccccc21)c1ccc(OC2CCCC2)cc1` (centres unmarked), 10.7%; to `CCc1ccccc1NC(=O)COc1cccc(-n2cnnn2)c1`, 9.74%. To `COc1ccc2cnnc(SCC(=O)Nc3ccc(C(C)=O)cc3)c2c1OC` belongs 1.42%; to `CC(C)(O)CC[C@@H](O)[C@](C)(O)C1CC[C@@]2(O)C3=CC(=O)[C@]4(O)C[C@@H](O)[C@@H](O)C[C@]4(C)C3CC[C@]12C` (some centres unmarked), 17.1%; to `CCOC(=O)c1ccccc1NC(=O)COC(=O)CCNS(=O)(=O)c1ccc(C)c(C)c1`, 15.2%. To `CC(C)CC(NC(=O)COc1ccccc1)C(=O)O` (centres unmarked) belongs 15.9%; to `Cc1c(NC(=O)c2cccc(S(=O)(=O)N3CCOCC3)c2)c(=O)n(-c2ccccc2)n1C`, 8.37%. For the compound `CCOC(=O)C1=C(C)C2C3C(=O)N(c4ccccc4C)C(=O)C3C1(C)C1C(=O)N(c3ccccc3C)C(=O)C21` (centres unmarked), the “hERG current change (%, negative = inhibition) at 1uM” value is given as -4.44%.

Turning to `CC1CCCC(C)N1CCNC(=O)Nc1ccc(Cl)cc1` (centres unmarked), the “hERG current change (%, negative = inhibition) at 1uM” value is -20.5%. To `Cc1ccc(NC(=O)c2cc(C)nc3ccccc23)c(C)c1` belongs 12.4%; to `Cc1cccc(NC(=O)c2ccc(NC(=O)c3ccccc3Br)cc2)c1`, 13.9%; to `CC(=O)c1ccc(OCc2cc(C(=O)N3CCC(c4ccncc4)CC3)no2)cc1`, -0.849%. With `CCc1ccnc(NS(=O)(=O)c2ccc3c(c2)OCCO3)c1`, the “hERG current change (%, negative = inhibition) at 1uM” value amounted to 16.5%. To `COc1ccc(Cc2nc3ccc(C(=O)N4CCC(N(C)C)C4)cc3o2)cc1` (centres unmarked) belongs 11.6%; to `CSc1nnc(-c2cccs2)n1C`, 12.5%; to `Cc1cccc(NS(=O)(=O)c2ccc(C(=O)N3CC(C)OC(C)C3)cc2)c1C` (centres unmarked), 19%. The same measure for `CC1=C(C(=O)OCCCCCl)C(c2cc3c(cc2Br)OCO3)NC(=O)N1` (centres unmarked): 24.6%; for `Cc1cccc(CSc2nc3c(cc2C#N)CN(C)CC3)c1`: -16.8%. To `O=C(O)CC1CCCC(c2ccccc2)C1=O` (centres unmarked) belongs -0.549%. Turning to `COc1cccc(NC(=O)Cc2cccs2)c1`, the “hERG current change (%, negative = inhibition) at 1uM” value is 7.75%. Take `NC(=O)NCCCC(=O)NCC(c1ccccc1Cl)c1c[nH]c2ccccc12` (centres unmarked): the “hERG current change (%, negative = inhibition) at 1uM” value is listed as 18.3%. To `COc1ccc(CCC(=O)NNC(=O)Nc2ccccc2Cl)cc1` belongs 11.3%. To `Cc1cccc(OCCCc2c(C)n[nH]c2C)c1` belongs 6.19%. The same measure for `N/C(=N\OC(=O)C(c1ccccc1)c1ccccc1)c1cccnc1`: -1.93%. For `O=C(NCCN1CCOCC1)c1ccc2c(c1)N(Cc1ccccc1)C(=O)CS2`, the “hERG current change (%, negative = inhibition) at 1uM” value came to 12.9%. The same measure for `CC(=O)c1ccc(NC(=O)C(C)N(C)CC(=O)Nc2ccc(N3CCOCC3)cc2)cc1` (centres unmarked): 0.17%. As to `O=C(N/N=C/c1c(O)n(-c2ccccc2)c(=O)[nH]c1=O)c1ccncc1`, the “hERG current change (%, negative = inhibition) at 1uM” value worked out at 20.1%. To `Cc1c(NC(=O)CN2c3cccc4cccc(c34)S2(=O)=O)c(=O)n(-c2ccccc2)n1C` belongs 11.9%; to `Cc1ccc2cc(C(c3nnnn3C3CCCC3)N(Cc3cccnc3)Cc3ccco3)c(=O)[nH]c2c1` (centres unmarked), -47.4%. Turning to `CCN1C(Nc2ccccc2)=NC[C@@H]1Cc1ccccc1`, the “hERG current change (%, negative = inhibition) at 1uM” value is -0.914%. In the case of `OCC1(Cc2ccccc2F)CCCN(CCc2ccccc2)C1` (centres unmarked), the “hERG current change (%, negative = inhibition) at 1uM” value is -30.5%. The same measure for `C[C@H]1[C@H](C)CC[C@]2(C)CC[C@]3(C)C(=CC(=O)C4[C@@]5(C)CC[C@H](O)C(C)(C)C5CC[C@]43C)[C@H]12` (some centres unmarked): 17.4%; for `Nc1ccc(S(=O)(=O)NCC(=O)OCCOc2ccccc2)cc1[N+](=O)[O-]`: 7.24%; for `COC(=O)CN1C(=O)[C@H]2[C@@H](c3ccc(C)o3)N3C(=O)CN(CCO)C(=O)[C@@]3(C)[C@H]2C1=O`: 7.16%. To `CC1CN(Cc2ccc(Cl)cc2Cl)CC(C)O1` (centres unmarked) belongs 8.87%; to `Fc1ccccc1CNc1ccc(Cl)cc1`, 12.8%. To `COC(=O)COc1ccccc1C(=O)Nc1ccc(OC)cc1` belongs -7.63%; to `NS(=O)(=O)c1ccc(NC(=S)Nc2ccc(C(=O)N3CCCCC3)cc2)cc1`, 12.3%.

On to `COc1cc(N/C(N)=N/c2nc(C)cc(C)n2)cc(OC)c1`, for which the “hERG current change (%, negative = inhibition) at 1uM” value is recorded as -15.6%. For the compound `O=C(NCc1cccs1)C1CCCN1C(=O)Nc1ccc(F)cc1` (centres unmarked), the “hERG current change (%, negative = inhibition) at 1uM” value is on record as 15.2%. As to `COc1ccccc1Nc1nnc(C)c(=O)[nH]1`, the “hERG current change (%, negative = inhibition) at 1uM” value is 9.38%.

Turning to `N#C/C(=C(\O)Cc1ccccc1)c1nc2ccccc2[nH]1`, the “hERG current change (%, negative = inhibition) at 1uM” value is recorded as 11.3%. As for `CC(C)(C)NC(=O)C1CC(=O)OC12CCCCC2` (centres unmarked), the “hERG current change (%, negative = inhibition) at 1uM” value came out at 12.7%.

Regarding `COc1ccc(CN2CCSCC2)c(C)c1C`, the “hERG current change (%, negative = inhibition) at 1uM” value turned out to be 17%. The same measure for `CN1CCCN(C(=O)c2ccc(Br)cc2)CC1`: 17.5%; for `CSc1nc(-c2ccccc2)c(C#N)c(=O)[nH]1`: 4.71%; for `Cc1cc(-n2c(SCC(=O)Nc3ccc(Br)cc3)nc3n[nH]c(C)c3c2=N)ccc1Cl`: 9.65%. The same measure for `O=C(N/N=C/c1c(Cl)nc2ccccn2c1=O)c1cccnc1`: 11.2%.

On to `CC(NS(=O)(=O)c1ccc(Br)cc1)C(N)=O` (centres unmarked), for which the “hERG current change (%, negative = inhibition) at 1uM” value was found to be 11.8%.

Take `Cc1ccc(N2C(=O)NC(NC(=O)C3CC3)(C(F)(F)F)C2=O)cc1` (centres unmarked): the “hERG current change (%, negative = inhibition) at 1uM” value is reported as 2.87%.

For the origin of these results see PMC4336329 (PLoS ONE, 2015).
